{
  "source": "PubChem BioAssay AID504332",
  "about": "(National Center for Advancing Translational Sciences (NCATS), 2011)",
  "note": "Where “and” joins values, the source holds several entries; their conditions need not be identical. Equal entries are not always repeated. In all, about 350,000 compounds went through this assay and about 31,000 (8.9%) were called active. Inconclusive means that the source gave no clear call. Such entries were picked first, then a sample of the others. Calls follow the shape of the dose curve; as a rule, active = well fitted inhibition curve with a large enough effect; inconclusive = small, poorly fitted or top-dose-only effect; inactive = no such curve, though single readings can be large or run the other way. Potencies of inconclusive entries are doubtful fits and often do not repeat. % is scaled to controls: 0 for no effect and ±100 for the full control effect; potency is read from the fitted curve at half-maximal effect; tags tell the direction and shape of the fitted curve.",
  "data": [
    {"molecular_target": "Histone-lysine N-methyltransferase EHMT2 (Homo sapiens) (UniProt Q96KQ7)", "sequence (Q96KQ7 whole entry, looked up)": "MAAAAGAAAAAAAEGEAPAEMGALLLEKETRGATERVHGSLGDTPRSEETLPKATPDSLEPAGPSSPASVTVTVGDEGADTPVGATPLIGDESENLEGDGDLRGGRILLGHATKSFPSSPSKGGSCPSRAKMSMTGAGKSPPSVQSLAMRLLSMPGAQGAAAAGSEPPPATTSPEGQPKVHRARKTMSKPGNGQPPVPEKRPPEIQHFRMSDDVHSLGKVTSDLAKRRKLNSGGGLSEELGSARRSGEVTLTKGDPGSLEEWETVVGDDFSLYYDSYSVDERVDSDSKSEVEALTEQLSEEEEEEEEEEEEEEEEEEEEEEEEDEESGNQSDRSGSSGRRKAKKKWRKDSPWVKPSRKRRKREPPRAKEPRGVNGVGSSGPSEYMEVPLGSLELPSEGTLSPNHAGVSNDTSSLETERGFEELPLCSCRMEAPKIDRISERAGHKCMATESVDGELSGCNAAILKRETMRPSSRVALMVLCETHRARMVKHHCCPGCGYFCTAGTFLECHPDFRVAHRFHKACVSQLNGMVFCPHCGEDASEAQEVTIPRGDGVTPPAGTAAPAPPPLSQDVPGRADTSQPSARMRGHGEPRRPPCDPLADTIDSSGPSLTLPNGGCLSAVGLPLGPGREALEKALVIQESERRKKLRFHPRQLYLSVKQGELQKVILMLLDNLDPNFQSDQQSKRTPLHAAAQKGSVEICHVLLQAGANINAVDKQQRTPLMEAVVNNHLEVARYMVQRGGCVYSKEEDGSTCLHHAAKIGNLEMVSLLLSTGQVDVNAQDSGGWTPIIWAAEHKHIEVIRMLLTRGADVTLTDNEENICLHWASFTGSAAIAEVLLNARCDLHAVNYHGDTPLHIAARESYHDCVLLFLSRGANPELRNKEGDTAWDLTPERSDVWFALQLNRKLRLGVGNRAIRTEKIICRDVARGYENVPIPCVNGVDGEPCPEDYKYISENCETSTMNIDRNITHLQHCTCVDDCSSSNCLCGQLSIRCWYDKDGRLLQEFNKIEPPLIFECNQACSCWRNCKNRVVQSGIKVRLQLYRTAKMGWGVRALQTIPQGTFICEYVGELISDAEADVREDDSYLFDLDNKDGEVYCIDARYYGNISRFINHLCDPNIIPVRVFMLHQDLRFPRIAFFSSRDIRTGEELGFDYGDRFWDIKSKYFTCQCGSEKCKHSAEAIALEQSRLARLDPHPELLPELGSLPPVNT", "assay": "qHTS Assay for Inhibitors of Histone Lysine Methyltransferase G9a; also: nearly all actives have a fitted effect of over 75% in size", "conditions": "G9a H3K9 monomethylation, AlphaScreen, 2 h; activity, negative = inhibition: at 59 µM (top of the series) unless noted", "method_in_brief": "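Readings reflect AlphaScreen signal from monomethyl-H3K9 antibody detection. HMT at 20 nM; substrate b-H3K9 500 nM; cofactor SAM 20 uM; 2 h RT reaction; compounds tested as titrations in qHTS with 15 min preincubation.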", "values": [
      {"smiles": "O=c1[nH]c(=O)n(CCC2=CCCCC2)c(O)c1C=Nc1cccc(F)c1", "activity, negative = inhibition": "inconclusive: -60.7% [inhibitor]"},
      {"smiles": "Cc1cc(OCC(=O)Nc2cc(C)nn2-c2ccccn2)c2c3c(c(=O)oc2c1)CCC3", "Potency": "inconclusive: 89.1 µM [inhibitor, partial curve, poor fit]"},
      {"smiles": "CCNC(=S)N1CCn2cccc2C1c1cccnc1", "note": "(stereo unspecified)", "Potency": "inconclusive: 79.4 µM [inhibitor, partial curve, poor fit]"},
      {"smiles": "O=c1c2ccccc2[nH]c(=S)n1-c1ccc2c(c1)OCO2", "activity, negative = inhibition": "inactive: 19.9%"},
      {"smiles": "COc1cccc(C(C#N)N2CCCCC2)c1O", "note": "(stereo unspecified)", "Potency": "inconclusive: 8.91 µM [inhibitor, partial curve]"},
      {"smiles": "CCOC(=O)COc1ccc(/C=C2\\C(=O)NC(=S)N(c3ccc(OC)cc3)C2=O)cc1OC", "Potency": "inconclusive: 6.31 µM [inhibitor, single point]"},
      {"smiles": "CCc1ccc(N2C(=O)NC(=O)C(Cc3ccc(OC)cc3OC)C2=O)cc1", "note": "(stereo unspecified)", "Potency": "inconclusive: 22.4 µM [inhibitor, single point]"},
      {"smiles": "Cc1[nH]c2ccccc2c1CCNCc1cccnc1", "Potency": "inconclusive: 39.8 µM [inhibitor, single point]"},
      {"smiles": "CN1C(=O)/C(=C/c2ccc(N3CCCCCC3)o2)C(=O)NC1=S", "Potency": "inconclusive: 17.8 µM [inhibitor, partial curve, poor fit]"},
      {"smiles": "C[C@@]1(CO)[C@H](O)CC[C@@]2(C)[C@H]1CC[C@H]1C[C@@H]3C[C@@]12CC[C@]3(O)CO", "Potency": "inconclusive: 6.31 µM [inhibitor, single point]"},
      {"smiles": "CCOC(=O)c1c(N)n(CCN2CCOCC2)c2nc3ccccc3nc12", "activity, negative = inhibition": "inactive: 0.945% [at 102 µM]"},
      {"smiles": "CN1[C@@H]2CC[C@H]1CC(OC1c3ccccc3CCc3ccccc31)C2", "note": "(stereo partly specified)", "activity, negative = inhibition": "inactive: -6.72% [at 5.15 µM]"},
      {"smiles": "O=c1[nH]c(=S)[nH]c(O)c1N=Nc1ccc(SC(F)F)cc1", "Potency": "active: 44.7 µM"},
      {"smiles": "C=CCN1C(=O)NC(=O)/C(=C\\c2ccc(-c3ccccc3[N+](=O)[O-])o2)C1=O", "Potency": "active: 22.4 µM"},
      {"smiles": "O=c1[nH]c(=O)n(CCC2=CCCCC2)c(O)c1/C=N/Nc1ccccc1", "Potency": "active: 3.55 µM"},
      {"smiles": "O=C(O)COc1ccc(/C=C2/SC(=S)N(Cc3ccccc3)C2=O)cc1", "Potency": "inconclusive: 44.7 µM [inhibitor, partial curve, poor fit]"},
      {"smiles": "O=C(Oc1cccnc1)c1ccc(Cl)cc1", "Potency": "inconclusive: 89.1 µM [inhibitor, single point]"},
      {"smiles": "CCOC(=O)c1ccc(N=C(CC)c2c(O)n(C)c(=O)n(C)c2=O)cc1", "Potency": "inconclusive: 79.4 µM [inhibitor, single point]"},
      {"smiles": "Cc1ccnc(-n2c(C)nc3ccccc3c2=O)c1", "activity, negative = inhibition": "inactive: -1.75%"},
      {"smiles": "CCCN(CCC)[C@@H]1CCc2c(OC)cccc2[C@@H]1C", "activity, negative = inhibition": "inactive: 15%"},
      {"smiles": "C=Cc1ccc(Cn2c(C(=O)O)c(C=O)c3ccccc32)cc1", "Potency": "inconclusive: 89.1 µM [inhibitor, single point]"},
      {"smiles": "CCN1CCN(Cc2nnnn2C(C)(C)C)CC1", "Potency": "inconclusive: 20 µM [inhibitor, single point]"},
      {"smiles": "O=c1[nH]c(=O)n(Cc2ccccc2)c(O)c1/C=C1\\C=Nc2ccccc21", "activity, negative = inhibition": "inactive: -45.4% [at 102 µM]"},
      {"smiles": "c1cnc2c(c1)ncn2C1CCNCC1", "Potency": "inconclusive: 22.4 µM [inhibitor, single point]"},
      {"smiles": "CCC(=Nc1ccc(OC)cc1OC)c1c(O)n(C)c(=O)n(C)c1=O", "Potency": "inconclusive: 50.1 µM [inhibitor, partial curve]"},
      {"smiles": "CCc1ccc(N2C(=O)NC(=O)/C(=C\\c3cccn3CCOc3ccc(C(C)C)cc3)C2=O)cc1", "Potency": "active: 7.08 µM"},
      {"smiles": "CC(C)C(=O)N1CCC(CN=Cc2c(O)n(C3CCCCC3)c(=O)n(C3CCCCC3)c2=O)CC1", "Potency": "inconclusive: 50.1 µM [inhibitor, partial curve, poor fit]"},
      {"smiles": "Cc1ccc(OCC(=O)N2CCN(CC3CC4C=CC3C4)CC2)cc1", "note": "(stereo unspecified)", "Potency": "inconclusive: 2.51 µM [inhibitor, partial curve, poor fit]"},
      {"smiles": "Cc1cccc(NP(C)(=O)c2nc3c(s2)CCCC3)c1", "note": "(stereo unspecified)", "Potency": "inconclusive: 70.8 µM [inhibitor, partial curve]"},
      {"smiles": "Cc1ccc(C)c(Cn2c(C(=O)O)c(C=O)c3ccccc32)c1", "Potency": "inconclusive: 56.2 µM [inhibitor, partial curve, poor fit]"},
      {"smiles": "COc1cc2c(cc1OC)[C@@H]1C(=O)c3ccc4oc(C(C)C)cc4c3OC1CO2", "note": "(stereo partly specified)", "activity, negative = inhibition": "inconclusive: -73.4% [inhibitor] [at 2.33 µM]"},
      {"smiles": "CN(C)C(=S)SSC(=S)N(C)C", "Potency": "active: 1.12 µM and active: 1.26 µM"},
      {"smiles": "Cc1ccc(OCC(=O)N2CCN(Cc3ccc(F)cc3)CC2)cc1", "Potency": "active: 1.26 µM"},
      {"smiles": "O=C1NC(=S)N(c2ccc(F)cc2)C(=O)/C1=C/c1ccco1", "Potency": "inconclusive: 3.16 µM [inhibitor, full curve, poor fit]"},
      {"smiles": "Fc1ccccc1CNC1CN2CCC1CC2", "note": "(stereo unspecified)", "Potency": "inconclusive: 79.4 µM [inhibitor, partial curve, poor fit]"},
      {"smiles": "CN1CC[C@@]2(C)c3cc(OC(=O)Nc4ccccc4)ccc3N(C)[C@@H]12", "Potency": "active: 15.8 µM"},
      {"smiles": "O=C(O)CCn1cc(C=C2C(=O)NC(=S)NC2=O)c(-c2cccc(Cl)c2)n1", "Potency": "active: 2.51 µM"},
      {"smiles": "Cn1c(SCC(=O)NCc2ccc(F)cc2)nc2ccccc21", "Potency": "inconclusive: 79.4 µM [inhibitor, single point]"},
      {"smiles": "C=C1CC[C@H](O)C/C1=C/C=C1\\CCC[C@]2(C)[C@@H]([C@H](C)CCCC(C)C)CC[C@@H]12", "Potency": "active: 15.8 µM"},
      {"smiles": "c1ccc(N2CCC3(CCNCC3)CC2)cc1", "activity, negative = inhibition": "inactive: -3.23% [at 12.7 µM]"},
      {"smiles": "COC(=O)C1=C(c2ccc(F)cc2OCc2ccccc2)C[C@@H]2CC[C@H]1N2C(=O)NCc1cccc(F)c1", "activity, negative = inhibition": "inactive: 4.4% [at 0.501 µM]"},
      {"smiles": "CC(=O)c1ccc(OC(=O)N(C)c2ccccc2)cc1", "Potency": "inconclusive: 56.2 µM [inhibitor, partial curve, poor fit]"},
      {"smiles": "CCN(CC)c1ccc(CN(C)CCc2ccc(OC)c(OC)c2)cc1", "Potency": "inconclusive: 22.4 µM [inhibitor, single point]"},
      {"smiles": "Cc1cc(CN(C)C)c(OC(=O)N(C)C)cc1C", "Potency": "inconclusive: 89.1 µM [inhibitor, single point]"},
      {"smiles": "O=C1NC(=S)NC(=O)C12C(c1ccccc1)NC(=S)NC2c1ccccc1", "note": "(stereo unspecified)", "Potency": "inconclusive: 89.1 µM [inhibitor, single point]"},
      {"smiles": "COc1ccccc1N1CCN(Cc2ccc(Br)cc2)CC1", "activity, negative = inhibition": "inconclusive: -59.3% [inhibitor] [at 0.501 µM]"},
      {"smiles": "Cn1cc(/C=C(\\C(=O)O)C(C(=O)O)=C2CCCCC2)c2ccccc21", "Potency": "active: 31.6 µM"},
      {"smiles": "CN1C(=O)C(=Cc2c(OCc3cnc(Cl)s3)ccc3ccccc23)C(=O)N(C)C1=O", "Potency": "inconclusive: 0.794 µM [inhibitor, full curve, poor fit]"},
      {"smiles": "O=C1NC(=O)C(CCc2ccccn2)(Cc2cccc(Cl)c2Cl)C(=O)N1c1ccc(Br)cc1", "note": "(stereo unspecified)", "Potency": "inconclusive: 39.8 µM [inhibitor, single point]"},
      {"smiles": "COc1ccc(-n2nc(C(=O)NCC(=O)N3CCC4(CC3)OCCO4)c3ccccc3c2=O)cc1Cl", "Potency": "inconclusive: 89.1 µM [inhibitor, single point]"},
      {"smiles": "Cn1c(C(=O)N2CCC3(CC2)OCCO3)cc2c(=O)n(C)c3ccccc3c21", "activity, negative = inhibition": "inactive: -9.08%"},
      {"smiles": "Cc1cc(N2C(=O)C3CCCN3C2c2ccccc2)no1", "note": "(stereo unspecified)", "Potency": "inconclusive: 39.8 µM [inhibitor, single point]"},
      {"smiles": "CN1CCN(C(=O)COc2ccc(Oc3ccccc3)cc2)CC1", "Potency": "inconclusive: 12.6 µM [inhibitor, full curve]"},
      {"smiles": "COc1ccccc1C1Nc2ccccc2-n2c(-c3ccccc3)c3c(=O)n(C)c(=O)n(C)c3c21", "note": "(stereo unspecified)", "Potency": "inconclusive: 39.8 µM [inhibitor, single point]"},
      {"smiles": "COc1ccccc1CN1CCN(C(=O)COc2ccccc2)CC1", "Potency": "inconclusive: 11.2 µM [inhibitor, partial curve, poor fit]"},
      {"smiles": "COc1ccccc1CN1CC[C@@]2(CCCN(C(=O)Oc3ccccc3)C2)C1", "activity, negative = inhibition": "inactive: 5.83% [at 12.7 µM]"},
      {"smiles": "C/C=C1\\C[N@@+]2(C)CC[C@@]34C(=C(C=O)[C@H]1C[C@H]32)Nc1ccccc14", "Potency": "inconclusive: 8.91 µM [inhibitor, single point]"},
      {"smiles": "COC(=O)C(NC(=S)N1CC2C[C@@H](C1)Cn1c2cccc1=O)C(C)C", "note": "(stereo partly specified)", "activity, negative = inhibition": "inactive: 45.1% [at 102 µM]"},
      {"smiles": "CC1OC(O[C@H]2C[C@@H](O)[C@]3(CO)[C@@H]4C(CC[C@]3(O)C2)[C@@]2(O)CC[C@H](C3=CC(=O)OC3)[C@@]2(C)C[C@H]4O)C(O)C(O)C1O", "note": "(stereo partly specified)", "activity, negative = inhibition": "inactive: 27.7%"},
      {"smiles": "O=c1cccc2n1CC1CC2CN(Cc2c(Cl)cccc2Cl)C1", "note": "(stereo unspecified)", "Potency": "active: 35.5 µM"},
      {"smiles": "O=C1NC(=O)N(Cc2cccs2)C(=O)/C1=C/c1ccc(N2CCOCC2)cc1", "Potency": "inconclusive: 31.6 µM [inhibitor, single point]"},
      {"smiles": "CC(C)(C)OC(=O)N1CC[C@H]1COc1cnc[c]([Sn]([CH3])([CH3])[CH3])c1", "activity, negative = inhibition": "inactive: 16.1% [at 12.7 µM]"},
      {"smiles": "COc1ccccc1N1CCN(C2CCCN(C(=O)COc3ccccc3Cl)C2)CC1", "note": "(stereo unspecified)", "Potency": "inconclusive: 15.8 µM [inhibitor, partial curve, poor fit]"},
      {"smiles": "CN(CC(=O)Nc1ccc(N2CCOCC2)cc1)CC(=O)Nc1cccc(C#N)c1", "Potency": "inconclusive: 22.4 µM [inhibitor, single point]"},
      {"smiles": "CCCCCCCSc1cc(OC)c(CCN(C)C)cc1OC", "Potency": "inconclusive: 3.98 µM [inhibitor, partial curve, poor fit]"},
      {"smiles": "Cc1cc(OCc2cc(C(=O)O)oc2C)c2c3c(c(=O)oc2c1)CCCC3", "Potency": "inconclusive: 5.01 µM [inhibitor, full curve, poor fit]"}
    ]}
  ]
}
